Laboratory results as given in ChEMBL document CHEMBL4888484, “Replenishing the malaria drug discovery pipeline: Screening and hit evaluation of the MMV Hit Generation Library 1 (HGL1) against asexual blood stage Plasmodium falciparum ,using a nano luciferase reporter read-out” (2022).
In all, about 150,000 compounds went through this assay and about 540 (0.36%) showed an effect of 50% or more. The list shows a part of the results.

system: Plasmodium falciparum; test: Primary screen in NF54 nanoGlo assay, in single point, at 2uM, 72h; a lower Z score goes with more inhibition; assay type: functional, Erythrocyte; conditions: timepoint 72 hour

Row | Compound | % Inhibition [%] | Z score
1 | CCCc1cc(CN(C)[C@H]2CN(Cc3nc4ccccc4n3C)C[C@@H]2O)n[nH]1 | -7 | 0.95
2 | CCn1ncc(-c2noc3nc(C4CC4)cc(C(=O)Nc4nn(C)cc4Cl)c23)c1C | 28 | -3.15
3 | O=C1NC2(CCN(C(=O)c3ccoc3C(F)(F)F)CC2)CO1 | -19 | 3.05
4 | COc1ccc(N2CCN(c3nc(C(=O)NC(C)C)cs3)CC2)cc1 | -4 | 0.54
5 | O=c1[nH]c(NCCc2ccccc2)nc2c1CN(Cc1ccccc1)CC2 | 6 | -0.97
6 | C#CCCOC(=O)c1cnc(CCC)s1 | -7 | 1.07
7 | Cc1sc(-c2ccno2)cc1S(=O)(=O)N(C)Cc1ncon1 | 3 | -0.48
8 | COc1ccc([C@@H]2CC(c3nc4ccccc4[nH]3)=NN2C(=O)CCN2CCCCC2)cc1 | -5 | 0.67
9 | O=C(c1ccc2[nH]ccc2c1)N1C2CCC1CC(n1ccnc1)C2 (stereo unspecified) | -12 | 1.5
10 | CC(=O)Nc1ncc(S(=O)(=O)NCC2(c3ccc(F)cc3)CC2)s1 | 0 | 0.06
11 | O=S(=O)(NC1CCCCC1)c1ccc2ccccc2c1 | 0 | 0.02
12 | CCNS(=O)(=O)CCNC(=O)C[C@H](C)c1cccc(F)c1 | -7 | 0.59
13 | COC(=O)c1ccc(Cl)c(CN2CCC(c3nnc[nH]3)CC2)c1 | -8 | 1.07
14 | CC(C)n1cc(Br)cc1C(=O)N1CCO[C@H](C(N)=O)C1 | -5 | 0.62
15 | N#Cc1cc(F)ccc1CN1C(=O)CN(C2CCCC2)C1=O | -16 | 1.57
16 | Cc1ccc([C@H]2CCN(CCCS(N)(=O)=O)C2)c(C)c1 | -3 | 0.38
17 | Cc1ccc(-c2ncccc2C#N)c2cccnc12 | -3 | 0.61
18 | CC(C)c1nnnn1[C@H]1CO[C@H]2[C@@H]1OC[C@H]2OC(=O)Nc1cccc(C#N)c1 | 0 | -0.05
19 | CCN(C)C(=O)N1CCC2(C1)OCCO2 | 25 | -2.87
20 | COc1cccc([C@@H]2CCN2C(=O)Nc2nc(C3CCCCC3)n[nH]2)c1 | 7 | -0.91
21 | COc1ccc(OC)c(C(=O)N2CCN(C)Cc3ccccc32)c1 | -5 | 0.46
22 | C[C@@H](c1ccc(-c2cnc3scnc3c2)cc1)N(C)C | -16 | 2.96

Row | Compound | % Inhibition [%] | Z score
23 | C1=CC2CCC1CC2CNCc1ccccc1 (stereo unspecified) | -6 | 1.03
24 | COc1cccc(CN2CCCn3cccc3[C@H]2c2cc(C)ccc2C)c1 | -1 | 0.13
25 | Cc1ccc2c(=O)c(C(=O)N3CCCC3)cn(CC(=O)NCc3ccc(F)cc3)c2n1 | -10 | 1.4
26 | CC[C@H]1CC[C@H](NC(=O)N(C)Cc2nnc(C)s2)CC1 | -13 | 2.42
27 | C[C@H](Oc1ccccc1)C(=O)N(C)c1nc2ccccc2n1C | 0 | -0.03
28 | NC(=O)N1CCC(NC(=O)[C@@H](O)Cc2ccccc2)C1 (stereo partly specified) | -5 | 0.67
29 | Cn1ccc([C@@H]2CCCCCN2S(=O)(=O)N2CCCC2)n1 | -8 | 1.12
30 | CC1CN(C(=O)NCC2CCN(c3ccccc3F)C2)CC[S+]([O-])C1 (stereo unspecified) | 5 | -0.8
31 | CC1CC(C)(C)CC(CO)(NCC(=O)NCc2ccco2)C1 (stereo unspecified) | -8 | 0.85
32 | Cc1ccc(-c2csc(-n3nc(NS(=O)(=O)c4ccc(C)cc4)nc3N)n2)cc1 | 29 | -3.28
33 | CN1c2ncccc2CN(Cc2ccc(Cl)cc2)CC[C@H]1CO | -5 | 0.82
34 | COc1ccc(-c2cc(C(=O)N3CCC(NC(=O)c4ccc5c(c4)OCO5)CC3)[nH]n2)cc1 | -21 | 2.41
35 | COc1ccccc1CN1C(=O)Cn2cccc2[C@@H]1C(=O)NC1CCCCC1 | 20 | -2.68
36 | COc1cc(NC(=O)c2sc(C)nc2C)c(OC)cc1NC(=O)c1ccccc1 | -4 | 0.73
37 | COCCN(Cc1cccs1)S(=O)(=O)c1cc2c(cc1C)NC(=O)CO2 | -7 | 0.9
38 | CCc1nc(C)sc1-c1nc(C)n[nH]1 | 0 | -0.03
39 | c1ccc2c(CCNc3ncncn3)c[nH]c2c1 | -20 | 1.95
40 | CCOC(=O)c1c(C)c(C(=O)Nc2ccc(Oc3ccccc3)cc2)c(C)n1CC | 3 | -0.42
41 | COCCn1ccc(C(=O)N2CCO[C@H](c3cccc(F)c3)[C@H]2C)n1 | 5 | -1.15
42 | CN1CCn2c1nc(N1CCOCC1)nc2=O | -11 | 1.24
43 | O=C1C[C@H](c2nc(-c3ccccc3)no2)C2(CCCC2)O1 | -8 | 1.59
